Among the data in the RNAGym collection of RNA variant scans (doi:10.7554/elife.90254) are self-cleavage values, retold here.

The source gives no read counts; variants with many changes may rest on few reads.

B1: LINE1-full (parent)
chain: UACGUAGGUGGUUUUCCCCUGAUAGUGCUAAGGGGGCCUGGAAGUUUGGACUGGGCAGAGCUCAACACAGCGUGGCAAAGUGGCUGUGGCUAGACUGCCUCUCUGGAUUCCUCGUCACUCAGCAGGGCAUCUCUGAGAGAAAUGCC

The variants in the data set derive from B1. Nature of the data set: self-cleavage, relative activity (ratio to wild type); higher = more cleavage; in vitro, sequencing; the parent is a self-cleaving ribozyme.
As to C37A A57U U109C, the self-cleavage stood at 0.09.
The result for G41A G60A A129G reads 0.04; that for C38A A77G U96C U130C, 0.09; that for U39A A50U U96C, 0.06.
As for C37A A43G U47C U104A, the self-cleavage is 1.11.
For U39C U85C C95U C118U A129U, the self-cleavage was found to be 0.03.
The result for U39A A50U U52C reads 1.17.
The same measure for U39C A78G U87A: 0.04; for C38U C56G A107G: 0.
The result for U39C G114A C120U reads 1.36; that for U39A U62A A77G U109C, 0.
As for A42G A64U A129U A141U, the self-cleavage was 0.54.
For the variant U39G A69G G70A A78G, the self-cleavage was found to be 0.09.
Consider U39A A92G U143A, for which the self-cleavage turned out to be 0.23.
In the case of U39C A57G A64G C71U A77G, the self-cleavage was 0.12.
As for U39C A67U A124G, the self-cleavage stood at 0.04.
As to U39C A50G U96C, the self-cleavage amounted to 0.34.
For C37G A69U A129G, the self-cleavage was determined as 0.09.
Consider C37U U39C U47C G86A, for which the self-cleavage turned out to be 0.09.
With A42C A43G U109C, the self-cleavage stood at 0.
On to G36U U102C U143A, for which the self-cleavage came out at 1.58.
Turning to G36C U104A A140G C146U, the self-cleavage came to 0.38.
The same measure for U39A U47C U62A U96A: 0.07; for G36A U87A U119A: 0.06.
Regarding U39A A78G U132C U134A A140G, the self-cleavage turned out to be 0.18.
Take G36U U39C A50G U52C U81A A124U: the self-cleavage worked out at 0.51.
For the variant U39C U45C A117U, the self-cleavage came to 0.61.
As to U39C U45C A92U A141G, the self-cleavage is 0.38.
As to U39G U104C A121U, the self-cleavage was 0.94.
As for U39A A42G U112C, the self-cleavage was found to be 1.32.
The result for G40A A64G A69U A140G reads 0; that for A42G A50G U73C C103U, 1.31.
As for U39A U62C U100A, the self-cleavage was determined as 0.06.
The result for G40U G49A U52C A65G U85A reads 0.08; that for A42G A65G U119A, 0.06.
Consider U39C A57U U100A A138G, for which the self-cleavage was found to be 0.06.
For the variant U39C G40U A79G, the self-cleavage stood at 1.14.
With G41A A92G A94G A136G, the self-cleavage came to 0.17.
For the variant U39C C131U A140G A141G, the self-cleavage came to 1.31.
The same measure for A42G A43U U52C A59U U115C: 0.57; for G40A U46C U81C U96C U134C: 0.11.
Consider U39C U130A U134C A140G, for which the self-cleavage worked out at 1.07.
The result for C38G A67G U85A reads 0.02.
The same measure for G36A U62C U81A U102A: 0.02; for U39G U62C U73A: 0.02; for U39C A78G G126C: 1.09.
The result for U39C U46C U143C reads 1.61; that for U39C U46C U143G, 2.04.
Regarding U39C G54A A94U, the self-cleavage turned out to be 0.14.
Turning to C38A U45C G126A, the self-cleavage turned out to be 1.43.
In the case of A42G A65G U85A, the self-cleavage was found to be 0.
In the case of C37A U73C U132C, the self-cleavage came out at 1.39.
G40A A50G U115C: the self-cleavage is 0.72.
As for G41A U47A U134C, the self-cleavage came to 1.06.
Regarding G40A U52A A78U U112C, the self-cleavage stood at 2.29.
The same measure for U39C U47A U73C U112C: 1.17.
The result for U39C U100C C123A reads 2.05; that for C37U U81A U102C U119A, 2.12; that for U39A A77G A79G U85C, 0.35.
For U39A U52C G89A, the self-cleavage came out at 0.04.
For U39A A117U U130C, the self-cleavage stood at 0.84.
The same measure for U39A U104A U132C: 0.29; for U39C U81C U102A: 0.99.
As for A42G A65G G97A, the self-cleavage stood at 0.24.
The result for G36A U104C A141U reads 1.33.
For the variant U39A A107G U119A, the self-cleavage came out at 2.39.
As to U39A U81C G89C, the self-cleavage is 0.09.
As to U39C U96A U102C, the self-cleavage turned out to be 0.09.
On to U39C A78G U115C, for which the self-cleavage came out at 1.07.
The result for U39A A69G A124G reads 0; that for U39C U87A G105U A117G, 0.
Consider C38U U45C U47A U62C U96C G106A G122A A141G, for which the self-cleavage was 0.
With G41A A57U U96C U104C U108C, the self-cleavage was 0.14.
As for U39A A129G U134C G135A, the self-cleavage was determined as 1.37.
On to C37G U47C G70U, for which the self-cleavage was 0.06.
The same measure for U39C C76U U87C: 0.19; for U39C A65C G80A U112C: 0.
The same measure for U39C A42G U85A: 0.12; for U39C A42U C84A U115C A121U U143A: 0.
In the case of U39A U108C U134C, the self-cleavage is 1.08.
The same measure for C38U A94U U100G: 0.43.
With G36U U39A U45C, the self-cleavage is 1.09.
In the case of G41U G48A A92U A117G A136G, the self-cleavage amounted to 0.38.
In the case of U39C U87A U119C, the self-cleavage was 0.
Turning to U39A U73C A94G A136U, the self-cleavage is 0.92.
The result for C37G A64C U91C A117C U143C reads 0; that for G40A U52A A57U A78G U100A U130C, 0.02.
On to C37G A94G C120U, for which the self-cleavage was determined as 0.23.
As for A42G A57U U81A A117G U119A U143C, the self-cleavage was found to be 0.31.
The same measure for G36C U39A C99A U104C: 0.17; for C37U U52C U119C U134C: 1.86; for A42G A43G U62C A136U: 0.
The result for U39A U52C A79G U115C A138G reads 2.87; that for U39A U62C A67G A77U U132C A138G G144A, 0.18.
For G36U U45A U52C U130C, the self-cleavage was 0.88.
With G36A U130C U134G, the self-cleavage was 1.44.
The result for U39C A57U A94U reads 0.05; that for C37G C61U A117G A140G, 0.05.
The same measure for C37A U87A U119C: 0.06; for U39A U108A U109G A129U U130C: 1.15.
Turning to U39C A43U A77U A138U, the self-cleavage amounted to 0.
The result for G41U U52C G105A reads 0.61; that for U39C U85A U91A, 0.06; that for G41U U119C U134C, 1.72.
The result for U39C A64U U115A reads 0.33.
As to U39A U91C U115A U130C, the self-cleavage turned out to be 0.73.
The result for U39A A129G U132C reads 1.3; that for G40U A77G C131U, 2.23.
As for U39A A42G A142G, the self-cleavage stood at 1.33.
The result for G36A U87C A124G A141U reads 0.04; that for U39A U109C U143C, 0.71; that for A42G A50G U119C, 1.53.
The same measure for G36U U73A U115C A136G: 1.93; for G40U U45A U134C: 1.56; for U39A A42G A78G: 1.31.
The same measure for G36U A42G U115C: 0.95; for U39A G49A U73C: 2.36.
Regarding G36U A59G A69G, the self-cleavage came out at 0.08.
On to G40A U112C U143C, for which the self-cleavage stood at 1.11.
As to U39A U115C A136G, the self-cleavage is 1.75.
With U39C A117C A121U, the self-cleavage amounted to 2.51.
The same measure for U39A A57G A140G: 0.75; for G41A A65G U115C: 0.04; for U39C U91A A92G: 0.08.
The result for U39A A94G A136G reads 0.18.
On to U39G G86A A94G, for which the self-cleavage worked out at 0.2.
Take G40A U45C G106U: the self-cleavage is 0.69.
On to U39C A59G A67U A78G, for which the self-cleavage is 0.
The same measure for U39C C76U A77G U100C C111U U143C: 2.62; for U39A C51U C110U: 1.5.
As for U39A U46A U115C U132C, the self-cleavage stood at 2.11.
The same measure for U39C U119C C123U A141G: 2.17; for C37U U39C A57G U100C A136U: 2.63.
U39C A78U A124G: the self-cleavage stood at 0.42.
For G36A U115C U130A, the self-cleavage was found to be 1.57.
For G40A A57U A121C, the self-cleavage is 0.05.
On to U39C U108C A129C, for which the self-cleavage was 2.21.
The result for U39A U115C A141G reads 2.04.
The result for C38U A64U U73A A107G reads 0.41.
Regarding G40A U81A U115C U119C, the self-cleavage came out at 2.21.
Take U39C A69G A142U: the self-cleavage worked out at 0.18.
For G41U U47A C84U, the self-cleavage was 0.1.
The same measure for G41U U108C U112C: 1.17; for U39C C103U A121G: 1.53; for U39A A50G A79G: 1.19.
The same measure for U39C U73G U96A: 0.04.
The result for A42G A43U U45C A77G reads 2.51; that for U39A G93C U108C, 0.07; that for A42G A57G G58A A65G C68U, 0.14.
On to U39A A124C A136U A138G, for which the self-cleavage was 1.84.
Consider U39C A43G U132C, for which the self-cleavage is 1.57.
For G36U U104A U134C, the self-cleavage is 0.56.
The same measure for G41U A77G A78U U109C A129U: 2.71; for G36C U39A U62C: 0.02.
Take C37A A43G A141G: the self-cleavage is 1.37.
With U39A G41U A121G, the self-cleavage stood at 1.69.
Consider U39A U46A U134A, for which the self-cleavage was 1.25.
For the variant C37A U108C A142G, the self-cleavage was 1.78.
With U39A A43G C71A, the self-cleavage amounted to 0.11.
The same measure for U39A A43G U85A A121G: 0.11; for U39C A77U U100C A140G: 1.91; for G40A U96A U109C: 0.
The result for C38A U47A U108C reads 0.77.
The same measure for C38U A67G C71U U115A A142G: 0.12.
With A42G A57U C71U U100A, the self-cleavage is 0.
The same measure for U39C A78G U85A U108C A129U: 0.13; for U39C A64G U81C: 0.33.
